# In PubChem BioAssay AID488969 (Vanderbilt High Throughput Screening Facility, 2010):
# Over roughly 110,000 compounds, “z-score” has its median near -0.1; the highest 2% begin near 2. The list shows a part of the results. Activity calls are given as the source filed them.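 Rule for the calls: active = z-score in the third read window above 3 or below -3; inactive = the rest.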
# Target: Metabotropic glutamate receptor 8 (Rattus norvegicus) (UniProt P70579)
# Assay: mGluR8 Gi/Go-coupled signaling modulation – cell-based, rat, thallium flux, HTS, primary screen (AID 488969)
# Settings: HEK293 rat mGluR8, GIRK (G protein-gated inwardly rectifying potassium channel) thallium flux, FluoZin2; at 10 µM; stronger effect = higher value; submaximal glutamate (EC20) added with thallium
# UniProt P70579, sequence (P70579 whole entry, looked up): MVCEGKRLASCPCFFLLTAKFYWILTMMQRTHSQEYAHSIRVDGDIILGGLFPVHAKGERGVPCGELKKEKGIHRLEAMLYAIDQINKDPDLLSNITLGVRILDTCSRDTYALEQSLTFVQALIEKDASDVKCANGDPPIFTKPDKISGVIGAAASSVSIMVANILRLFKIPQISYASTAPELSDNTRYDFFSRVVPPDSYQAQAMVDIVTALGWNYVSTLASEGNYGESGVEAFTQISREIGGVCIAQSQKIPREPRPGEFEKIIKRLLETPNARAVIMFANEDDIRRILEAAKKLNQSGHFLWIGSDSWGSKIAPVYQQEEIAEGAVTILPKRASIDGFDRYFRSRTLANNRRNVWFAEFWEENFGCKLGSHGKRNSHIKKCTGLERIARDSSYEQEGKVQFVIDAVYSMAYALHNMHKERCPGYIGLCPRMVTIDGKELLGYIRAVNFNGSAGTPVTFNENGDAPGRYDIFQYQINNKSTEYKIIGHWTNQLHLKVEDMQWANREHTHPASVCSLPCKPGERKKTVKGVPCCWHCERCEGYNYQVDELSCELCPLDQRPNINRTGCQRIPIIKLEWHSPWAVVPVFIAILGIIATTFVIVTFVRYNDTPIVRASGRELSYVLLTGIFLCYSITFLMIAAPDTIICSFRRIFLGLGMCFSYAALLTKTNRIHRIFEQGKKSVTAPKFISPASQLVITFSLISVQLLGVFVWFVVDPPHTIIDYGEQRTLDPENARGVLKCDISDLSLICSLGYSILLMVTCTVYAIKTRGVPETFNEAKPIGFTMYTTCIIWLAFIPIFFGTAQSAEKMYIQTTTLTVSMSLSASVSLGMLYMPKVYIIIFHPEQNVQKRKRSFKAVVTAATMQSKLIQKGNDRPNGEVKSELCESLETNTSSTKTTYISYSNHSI
row,SMILES,z-score
1,CCS(=O)(=O)c1ccc(C(=O)Nc2ccccc2)c(Cl)c1Cl,-0.115
2,Cc1ccc2[nH]c(=O)c(CN(CC3CCCO3)S(=O)(=O)c3cccc4nsnc34)cc2c1 (stereo unspecified),0.8
3,CCOc1cc(C=O)ccc1OCCSc1ccc(Cl)cc1,-0.108
4,O=C1CN(C(=O)c2cc(Br)c(Br)s2)c2ccccc2N1,-0.435
5,Cc1cc(N2CCN(c3ccccc3Cl)CC2)n2cc(-c3ccccc3)nc2n1,0.105
6,COc1ccc(S(=O)(=O)n2oc(=O)cc2-c2ccccc2)cc1OC,-0.0891
7,Cc1cccc(C)c1NC(=O)Cn1nnc(-c2ccc(N3CCOCC3)cc2)n1,-0.234
8,O=C(Cn1c(-c2cscn2)nc2ccccc21)Nc1ccc2ccccc2c1,-0.0133
9,CS(=O)(=O)NCCSCc1ccccc1,-0.226
10,CCn1c(SCc2nc3ccccc3s2)nnc1-c1ccccc1,-0.212
11,CCSc1nnc(NC(=O)C2CC=CCC2C(=O)O)s1 (stereo unspecified),1.27
12,CCCc1cc2c(cc1NC(=O)c1ccc(Br)cc1)OCO2,-0.081
13,COc1ccc(Cn2c(C3CC3)nc3ccc(NC(C)=O)cc3c2=O)cc1,0.228
14,CCOc1nc2ccccc2nc1NS(=O)(=O)c1ccccc1,-0.249
15,N#Cc1c(NC(=S)NC(=O)c2ccccc2)sc2c1CCCC2,0.0146
16,CC(=O)c1c(C)n(CCO)c2ccc(O)cc12,0.363
17,O=C1CC(C(=O)Nc2ccc(F)c(Cl)c2)N=C(N2CCCCC2)N1 (stereo unspecified),0.0616
18,CCOc1cc(CNc2ccc(N(C)C)cc2)cc(Br)c1OCC(=O)NC(C)(C)C,0.193
19,O=C(COc1cc(=O)n2c(n1)SCCC2)c1ccccc1,-0.121
20,CCCS(=O)(=O)N1CCC(C(=O)NC2CCCCC2C)CC1 (stereo unspecified),0.109
21,CCOC(=O)C1=NN(C(C)=O)C2(CC(=O)N(c3cccc(C)c3)C2=O)C1 (stereo unspecified),-0.0266
22,Cc1cccc(NC(=O)COC(=O)c2ccc3c(=O)n4c(nc3c2)CCC4)c1,2.19
23,CCOC(=O)c1ccc(NC(=O)C2CCN(C(=O)c3ccc(OC)c(OC)c3)CC2)cc1,-0.279
24,CC1Cc2ccccc2N1C(=O)c1cc2c(=O)n3ccccc3nc2n1C (stereo unspecified),-0.425

row,SMILES,z-score
1,COCCNC(=O)C1CC(c2ccccc2[N+](=O)[O-])=NO1 (stereo unspecified),-0.144
2,Cc1ccc(OC(C)c2nnc(N)s2)cc1Cl (stereo unspecified),-0.0873
3,Cc1cccc(N(CC(=O)N/N=C/c2cc([N+](=O)[O-])ccc2Cl)S(C)(=O)=O)c1C,-0.628
4,CCCOc1ccc(/C=C/C(=O)Nc2ccc([N+](=O)[O-])cc2C)cc1OC,-0.0468
5,O=C(Cc1sc(-c2ccccc2)nc1-c1ccccc1)Nc1ccccc1,0.412
6,CC1=C/C(=C\c2ccc3c(c2)OCO3)C(=O)S1,0.528
7,Cc1cccc(Nc2nc(-c3ccccc3)c(C(=O)Nc3cccnc3)s2)c1,0.439
8,S=C(Nc1ccccc1)N1CCn2cccc2C1c1cccnc1 (stereo unspecified),0.474
9,COc1ccc(-n2nnnc2-c2cccnc2)cc1,-0.216
10,C=CCn1c(SC)nnc1-c1cccc([N+](=O)[O-])c1,-0.263
11,CSc1nsc(/C=C/Nc2ccc(Cl)cc2)c1C#N,0.0184
12,CCOC(=O)c1sc(NC(=O)CSc2n[nH]c(CC(C)C)n2)nc1C,-0.302
13,Cc1cccc(N2CCN(C(=O)Cn3cccc3)CC2)c1C,-0.104
14,Cc1ccc(N2C(=O)C3C4C=CC(CNC(=S)Nc5ccc(Cl)cc5)(O4)C3C2=O)cc1 (stereo unspecified),-0.00399
15,O=C(c1ccc(Br)o1)N1CCN(c2ncccn2)CC1,-0.2
16,CC(=O)N1CCN(c2ccc(Oc3ncnc4sccc34)cc2)CC1,0.263
17,COC(=O)c1ccccc1NC(=O)c1nc2nc(C)cc(C)n2n1,0.69
18,CCNc1c([N+](=O)[O-])ncn1C,-0.216
19,CN1CCC2(CC1)N=C(c1ccc(F)cc1)C(=S)N2C(=O)c1ccccc1,-0.317
20,COc1cccc(NC(=O)COC(=O)c2c3c(nc4ccccc24)CCC(C)C3)c1 (stereo unspecified),-0.604
21,O=C(Nc1nc(-c2cc(Cl)sc2Cl)cs1)c1ccccc1,-0.751
22,COc1ccc(NC(=O)c2cn(CCC#N)nc2-c2cccs2)cc1,-0.0605
23,Cc1nnc(NC(=O)CSc2nccn2C)s1,-0.0451
24,CCC1(C)Cc2c(sc3nc(SC)n(Cc4ccccc4)c(=O)c23)CO1 (stereo unspecified),-0.216

row,SMILES,z-score
1,C=CCN1C(=O)C2(NNc3ccccc3O2)c2ccccc21 (stereo unspecified),-1
2,CCOc1cc(C(N)=O)cc(Br)c1OCC,0.226
3,O=c1c(O)c(-c2cccs2)oc2ccc(Cl)cc12,active: 14.1
4,C=CCn1c(SCC(=O)Nc2ccc(N(C)C)cc2)nnc1-c1cccc(C)c1,-0.17
5,Cc1cc(C(=O)OC(C(=O)Nc2ccc(C)c(Cl)c2)c2ccccc2)c(C)o1 (stereo unspecified),-0.415
6,COc1ccc(-c2nc3c(n2O)CCC/C3=N\O)cc1,0.878
7,O=C(NCc1ccccc1)C(c1ccc(F)cc1)N(Cc1ccco1)C(=O)c1ccccn1 (stereo unspecified),0.304
8,CCCS(=O)(=O)Nc1c(OC)ccc2c1c(C(=O)OCC)c(C)n2C,-0.18
9,Cc1ccc(-c2nnc(SCC(=O)Nc3ccc(N4CCOCC4)cc3)o2)cc1,-0.301
10,O=c1[nH]c2cc3c(cc2cc1CN(CCc1ccccc1)Cc1nnnn1C1CCCC1)OCCO3,-0.261
11,O=C(Oc1ccc([N+](=O)[O-])cc1)c1cccnc1,-0.0965
12,CCCNC(=O)c1ccccc1NC(=O)COc1ccc(OC)cc1,-0.246
13,Clc1ccc(-c2cnc3n2CCC3)cc1,0.0115
14,CCCN(C(=O)Cn1ncc2c(=O)oc3ccccc3c21)c1cccc(C)c1,-1.15
15,COc1cc(C=O)ccc1OCCOCCOc1ccccc1Cl,-0.5
16,O=C(COc1ccc(Cl)cc1Cl)Nc1ccc(S(=O)(=O)NC2=NCCCCC2)cc1,-0.171
17,CCS(=O)(=O)Nc1ccc(-c2ccc(NS(=O)(=O)CC)c(OC)c2)cc1OC,0.129
18,COc1ccccc1NC(=O)CSc1nnc(C2CCCCC2)o1,0.261
19,COCCNC(=O)NC(=O)COC(=O)C12CC3CC(CC(NC(C)=O)(C3)C1)C2,0.0811
20,O=C1CC(SCc2nc3ccccc3[nH]2)C(=O)N1c1ccc(F)c(Cl)c1 (stereo unspecified),-0.178
21,CC(C)CCNC(=O)C12CN(Cc3ccccc3)CC1C(c1ccc([N+](=O)[O-])cc1)=NO2 (stereo unspecified),-0.311
22,COC(=O)c1ccc(C(=O)OC)c(NC2=NS(=O)(=O)c3ccccc32)c1,1
23,CC(=O)c1cc(NC(=O)c2ccccc2)c(=O)oc1/C=C/N(C)C,-0.179
